{"source": "PubChem BioAssay AID1030", "about": "(National Center for Advancing Translational Sciences (NCATS), 2008)", "note": "Hit rate of the full screen: of about 220,000 compounds, about 16,000 (7.3%) were called active. This list was built around the results that the source calls inconclusive (neither active nor inactive); the mix of calls is not that of the screen. Calls come from the whole dose curve; as a rule, active = well fitted inhibition curve with a large enough effect (not every such curve was filed as active); inconclusive = small, poorly fitted or top-dose-only effect, or another doubt; inactive = no such curve, though single readings can be large or run the other way. Potencies of inconclusive entries are left out as doubtful fits. Potency is the fitted concentration of half-maximal effect; tags give direction and shape of the fitted curve.", "data": [{"target": "Aldehyde dehydrogenase 1A1 (Homo sapiens) (UniProt P00352)", "sequence (P00352 whole entry, looked up)": "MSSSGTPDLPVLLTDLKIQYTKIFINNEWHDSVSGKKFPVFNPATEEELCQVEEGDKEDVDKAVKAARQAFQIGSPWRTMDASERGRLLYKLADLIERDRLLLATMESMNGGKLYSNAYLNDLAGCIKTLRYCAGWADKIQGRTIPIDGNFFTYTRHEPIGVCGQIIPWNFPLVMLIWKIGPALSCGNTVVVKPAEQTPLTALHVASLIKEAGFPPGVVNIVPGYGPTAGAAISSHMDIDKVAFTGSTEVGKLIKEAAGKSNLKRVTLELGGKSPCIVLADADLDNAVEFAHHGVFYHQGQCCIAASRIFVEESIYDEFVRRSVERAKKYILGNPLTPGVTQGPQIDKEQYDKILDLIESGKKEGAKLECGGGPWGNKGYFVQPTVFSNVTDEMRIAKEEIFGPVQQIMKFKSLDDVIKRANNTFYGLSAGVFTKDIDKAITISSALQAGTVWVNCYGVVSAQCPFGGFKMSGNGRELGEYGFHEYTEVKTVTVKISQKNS", "experiment": "qHTS Assay for Inhibitors of Aldehyde Dehydrogenase 1 (ALDH1A1);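 for activity, negative = inhibition: plate controls were no enzyme wells and a reference inhibitor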", "settings": "Purified ALDH1A1, NADH fluorescence, propionaldehyde substrate; series mostly up to 75.3 µM", "values": [{"smiles": "CCC(C)(C)NC(=O)C(c1ccc(F)cc1)N(Cc1cccs1)C(=O)c1cnccn1", "note": "(configuration not stated)", "Potency": "inactive"}, {"smiles": "COc1ccc(CN2CCN(S(=O)(=O)c3ccccc3)CC2)c(OC)c1", "Potency": "inconclusive [inhibitor, partial curve]"}, {"smiles": "CC(CN(C)Cc1ccccc1)OC(=O)c1cccc(F)c1", "note": "(configuration not stated)", "Potency": "inactive"}, {"smiles": "c1ccc(-c2nc(CSc3n[nH]c(-c4cccs4)n3)cs2)cc1", "Potency": "inconclusive [inhibitor, single point]"}, {"smiles": "COc1cccc(NC(=O)CC2(CC(=O)O)CCCC2)c1", "Potency": "inactive"}, {"smiles": "CCCN1CCN(C(=S)Nc2ccc(SC(F)F)cc2)CC1", "Potency": "inactive"}, {"smiles": "CCS(=O)(=O)Nc1ccc(-c2cc(-c3ccccc3)c3cc(C)ccc3n2)cc1", "Potency": "inconclusive [inhibitor, single point]"}, {"smiles": "O=C(Nc1cccc(-c2cn3c(n2)SCC3)c1)c1ccc2c(c1)OCO2", "Potency": "inconclusive [inhibitor, single point]"}, {"smiles": "Cc1ccc(CNC(=O)C2CCCN(Cc3cnn(-c4ccccc4)c3-n3cccc3)C2)cc1", "note": "(configuration not stated)", "Potency": "inconclusive [inhibitor, single point]"}, {"smiles": "COc1cc(CNc2ccc(C(=O)O)cc2)cc(Br)c1OCC(=O)NC(C)(C)C", "Potency": "inconclusive [inhibitor, single point]"}, {"smiles": "COCn1c(-c2ccc(OC)cc2)nc2ccccc21", "Potency": "inconclusive [inhibitor, single point]"}, {"smiles": "CCOC(=O)CN1C(=O)C(O)(CC(=O)c2cccc(OC)c2)c2ccccc21", "note": "(configuration not stated)", "Potency": "active: 0.282 µM"}, {"smiles": "Cc1ccc2c(N)c(C(=O)N(c3ccccc3)c3ccccc3)sc2n1", "Potency": "inconclusive [inhibitor, single point]"}, {"smiles": "Oc1c(Br)cc(C=Nc2ccc3nc(-c4ccccc4)[nH]c3c2)c(O)c1Br", "Potency": "inconclusive [inhibitor, partial curve]"}, {"smiles": "COc1cc2cc(CN(CCO)C(=O)c3cccs3)c(=O)[nH]c2cc1OC", "Potency": "inconclusive [inhibitor, single point]"}, {"smiles": "O=C(Nc1ccc(Cl)c(S(=O)(=O)N2CCOCC2)c1)c1ccccn1", "Potency": "inconclusive [inhibitor, single point]"}, {"smiles": "CSCCC(NC=O)C(=O)NC(CC(C)C)C(=O)NC(Cc1ccccc1)C(=O)O", "note": "(configuration not stated)", "Potency": "inconclusive [inhibitor, single point]"}, {"smiles": "O=C(NNc1nc2cc3c(cc2s1)OCO3)c1ccc(F)cc1", "Potency": "inconclusive [inhibitor, single point]"}, {"smiles": "C[C@]12C[C@H](O)C3[C@@H](CCC4=CC(=O)CC[C@@]43C)[C@@H]1CC[C@@H]2C(=O)CO", "note": "(some centres not stated)", "Potency": "inactive"}, {"smiles": "O=C(O)Cn1nc(-c2ccccc2)oc1=O", "Potency": "inactive"}, {"smiles": "CCCC(C)NC(=O)c1ccc2[nH]c3c(c2c1)CC(C)CC3", "note": "(configuration not stated)", "Potency": "active: 15.8 µM"}, {"smiles": "CCOc1ccc(OCC(=O)c2c(O)c3ccccc3oc2=O)cc1", "Potency": "active: 8.91 µM"}, {"smiles": "CCOC(=O)Cn1c(-c2nonc2NC(=O)c2ccccc2F)nc2ccccc21", "Potency": "inconclusive [inhibitor, partial curve]"}, {"smiles": "Cc1cc(C)n(-c2nc(C(F)(F)F)nc3ccccc23)n1", "Potency": "inactive"}, {"smiles": "O=C(NC(NNc1ccc([N+](=O)[O-])cc1)(C(F)(F)F)C(F)(F)F)c1ccc(Cl)cc1", "Potency": "inconclusive [inhibitor, partial curve]"}, {"smiles": "Cc1ccc(/C=N/NC(=O)c2ccncc2)o1", "Potency": "inconclusive [inhibitor, single point]"}, {"smiles": "COc1cccc(CN2CCN(Cc3nc(-c4cccs4)oc3C)CC2CCO)c1", "note": "(configuration not stated)", "Potency": "inactive"}, {"smiles": "Cc1ccc(S(=O)(=O)N2CCN(C(=O)/C=C/c3ccco3)CC2)cc1", "Potency": "active: 22.4 µM"}, {"smiles": "COc1ccc(/C=N\\N=C2/SC(CC(=O)O)C(=O)N2c2ccc(O)cc2)cc1OC", "note": "(configuration not stated)", "Potency": "inconclusive [inhibitor, single point]"}, {"smiles": "COc1ccc(OC)c(-c2cc(C(=O)Nc3cc(C)on3)no2)c1", "Potency": "inconclusive [inhibitor, single point]"}, {"smiles": "Cc1ccc(Nc2nc(-c3ccc(S(=O)(=O)N4CCCC4)cc3)cs2)cc1C", "Potency": "inconclusive [inhibitor, single point]"}, {"smiles": "CSc1cccc(NC(=O)/C=C/c2ccco2)c1", "Potency": "active: 3.16 µM"}, {"smiles": "CC(=O)N1CCc2cc(S(=O)(=O)NC(CC(C)C)C(=O)N3CCc4ccccc4C3)ccc21", "note": "(configuration not stated)", "Potency": "inconclusive [inhibitor, partial curve]"}, {"smiles": "N#Cc1nc(-c2ccco2)oc1NCc1ccco1", "Potency": "inconclusive [inhibitor, partial curve]"}, {"smiles": "COc1ccc(-n2nc(C(=O)NCC(=O)NCC3COc4ccccc4O3)c3ccccc3c2=O)c(OC)c1", "note": "(configuration not stated)", "Potency": "inactive"}, {"smiles": "Nc1ccccc1C(=O)N1CCCC1", "Potency": "inconclusive [inhibitor, single point]"}, {"smiles": "CCOC(=O)c1c(-c2cccc([N+](=O)[O-])c2)csc1N", "Potency": "inconclusive [inhibitor, single point]"}, {"smiles": "CN1CCN(Cc2c(O)c(Cl)cc3c(-c4ccccc4)cc(=O)oc23)CC1", "Potency": "inconclusive [inhibitor, single point]"}, {"smiles": "CCOC(=O)Cn1c2c(c(=N)c3c1CCC3)CCCC2", "Potency": "inactive"}, {"smiles": "O=C1c2ccccc2C(Nc2ccc(S(=O)(=O)N3CCCCCC3)cc2)N1Cc1ccco1", "note": "(configuration not stated)", "Potency": "inconclusive [inhibitor, partial curve]"}, {"smiles": "Cc1cc(C)c(S(C)(=O)=O)c(NN)n1", "Potency": "inconclusive [inhibitor, partial curve]"}, {"smiles": "CCOC(=O)c1[nH]c2ccccc2c1NC(=O)CCN1CC(C)OC(C)C1", "note": "(configuration not stated)", "Potency": "inactive"}, {"smiles": "Cc1ccccc1OCCNc1cc(N2CC(C)NC(C)C2)ccc1[N+](=O)[O-]", "note": "(configuration not stated)", "Potency": "inactive"}, {"smiles": "O=C1NC(=O)C(c2ccccc2)(c2ccccc2)N1", "Potency": "inactive"}, {"smiles": "COc1cc(/C=C2\\SC(=O)N(CCN)C2=O)ccc1OS(=O)(=O)c1cc(C)ccc1C", "Potency": "inactive"}, {"smiles": "Cc1ccc(-n2c(Cc3cccs3)nnc2SCC(=O)Nc2ccc(F)c(F)c2)cc1", "Potency": "inconclusive [inhibitor, single point]"}, {"smiles": "Cc1ccc(S(=O)(=O)c2nc(-c3ccccc3)oc2NCCCN2CCOCC2)cc1", "Potency": "inconclusive [inhibitor, partial curve]"}, {"smiles": "COc1ccc(S(=O)(=O)N(CC(=O)NC(C)C)Cc2ccccc2)cc1", "Potency": "inconclusive [inhibitor, single point]"}, {"smiles": "CC(Oc1ccc(Cl)cc1Cl)c1ccn[nH]1", "note": "(configuration not stated)", "Potency": "inactive"}, {"smiles": "O=C(/C=C1\\NC2(CCCC2)Cc2ccccc21)N1CCOCC1", "Potency": "inconclusive [inhibitor, single point]"}, {"smiles": "COc1ccccc1NC(=O)CNC(=O)c1ccccc1C", "Potency": "inactive"}, {"smiles": "COc1ccc(N2CC(NC(=O)NCCC(C)C)CC2=O)cc1", "note": "(configuration not stated)", "Potency": "inactive"}, {"smiles": "O=C(CCCN1C(=O)/C(=C/c2cccs2)SC1=S)Nc1ccc(C(=O)O)cc1", "Potency": "inconclusive [inhibitor, single point]"}, {"smiles": "O=C(O)C(=O)/C(=C\\c1ccc(Cl)cc1)c1ccc2ccccc2n1", "Potency": "inconclusive [inhibitor, partial curve]"}, {"smiles": "CCN1CCN(c2nc(C)c3c(n2)CCCC3=O)CC1", "Potency": "inactive"}, {"smiles": "CCN1C(=O)C(Cc2nc3ccccc3c(=O)n2-c2ccccc2)c2ccccc21", "note": "(configuration not stated)", "Potency": "inconclusive [inhibitor, single point]"}, {"smiles": "Cc1nc2ccc(NC(=O)c3ccc4ccccc4n3)cc2s1", "Potency": "inconclusive [inhibitor, single point]"}, {"smiles": "CC1(C)Cc2[nH]c(=O)c(C#N)cc2CS1", "Potency": "inconclusive [inhibitor, single point]"}, {"smiles": "CC(C)n1c(=NC(=O)c2ccco2)c(C#N)cc2c(=O)n3ccccc3cc21", "Potency": "inconclusive [inhibitor, partial curve]"}, {"smiles": "CC1CC(C)CN(C(=O)CSc2nnc(-c3ccc(F)cc3)o2)C1", "note": "(configuration not stated)", "Potency": "inconclusive [inhibitor, single point]"}, {"smiles": "CCc1nc(N2CCN(C(=O)c3ccco3)CC2)c2c3c(sc2n1)CCCC3", "Potency": "inconclusive [inhibitor, single point]"}, {"smiles": "Cc1ccc(C2(CC(=O)N3CCCC3)CCOC(C(C)C)C2)cc1", "note": "(configuration not stated)", "Potency": "inconclusive [inhibitor, single point]"}, {"smiles": "O=C(O)c1ccccc1Sc1ncnc2sc3c(c12)CCC3", "Potency": "inactive"}, {"smiles": "O=c1[nH]c(SCc2cccc(Cl)c2)nc2c1CCCC2", "Potency": "inactive"}, {"smiles": "Cc1c(C(=O)Nc2ccccc2)cn2c(nc3ccccc32)c1C#N", "Potency": "inconclusive [inhibitor, partial curve]"}, {"smiles": "Cc1ccc(C(=O)Oc2ccccc2N2C(=O)C3CCCCC3C2=O)cc1", "note": "(configuration not stated)", "Potency": "inactive"}, {"smiles": "Cn1cccc1Cc1nnc(SCC(=O)NCc2ccccc2)n1-c1ccc(F)cc1", "Potency": "inactive"}, {"smiles": "CC(C)N(C)S(=O)(=O)c1ccc(Cl)c(C(=O)O)c1", "Potency": "inactive"}, {"smiles": "CCC1C(=O)n2nc(-c3ccccc3)cc2N=C1C", "note": "(configuration not stated)", "Potency": "inconclusive [inhibitor, partial curve]"}, {"smiles": "COc1ccc(CCNC(=O)C/C(C)=N/NC(=O)C23CC4CC(CC(C4)C2)C3)cc1OC", "Potency": "inconclusive [inhibitor, single point]"}, {"smiles": "C=CCN1c2ccccc2[C@]23C[C@@H](C(=O)OC)N(S(=O)(=O)c4ccc(C#N)cc4)C2=NC(C(=O)OC)=C(C(=O)OC)[C@H]13", "activity, negative = inhibition": "inactive: -3.06% [at 13.5 µM]"}, {"smiles": "Cc1ccccc1C(=O)c1c[nH]c(C(=O)NCC2CCCO2)c1", "note": "(configuration not stated)", "Potency": "inconclusive [inhibitor, single point]"}]}]}
